Publication PMC12136788
Some of the results follow.

B1: chr8:26875701:26875702:-_ENSMUSG00000037316_ENSMUST00000038498|mus_mus|motif|central (ssRNA)
RNA: GGGAGUUCUACAGUCCGACGAUCAGACUACUGAGACAGACAACCAAAUGCAAAACUGGAUCUGGAACAGUUGAGAGGAUGCGGCGGAAAAGAUAAAUGAAGUGUCUACUUUUAGCUUGCUACUUCAGCUAAUAUUAAUAGCACCAACAGAGGAUUGAGCAUCA
B2: chrX:147244336:147244337:-_ENSMUSG00000025268_ENSMUST00000112699|mus_mus|FALSE|FALSE (ssRNA)
RNA: GGGAGUUCUACAGUCCGACGAUCACUGAGAAGAAUAUACAAGUGGUCAUUCUUGUCAAUUUCUUUCAAUUGGAUUCCAAAUACCUUCUCCAAGGAAUAGCCUGCUCGUUCAAUGAUUUCAGGGUAUACAUCAGUAUAUUCUUUCAACAGAGGAUUGAGCAUCA
B3: chr4:6882955:6882956:+_ENSG00000170871_ENST00000425103|hu_mus|motif|central (ssRNA)
RNA: GGGAGUUCUACAGUCCGACGAUCUGGCGACACAGCCGCCAGAGGGAGGCCUGCAGCUGCGAUGCAGAAGCGGGACGCACGGGGACAAGCACAUGCACACCCAUUCCUCAUGGACAGCACAGUCUAGUCUACUUCAGAGAGCAACAACAGAGGAUUGAGCAUCA
B4: chr11:100882373:100882374:+_ENSMUSG00000019302_ENSMUST00000044721|mus_mus|mus_mus_mus_hu_True|1_28 (ssRNA)
RNA: GGGAGUUCUACAGUCCGACGAUCUUCCUGGUUUGUGUUGAUUUCCUUCAGUUCAUUUUCAAUCUUCUCAAAAUUGGCCUCUAAGUCAAUCAUGUCCCGGGGGAAGGGCACCUCUGGGUUUUCACCGGUGUCCAUAAUUGGGAUCAACAGAGGAUUGAGCAUCA
B5: 131122594_131122714_1111_CDS_ENSG00000128585_ENST00000352689|human|control|control (ssRNA)
RNA: GGGAGUUCUACAGUCCGACGAUCAUCCUCACUUAGUAACAUCCAUGUGUUUGUAUCAAUGUCAUAACGAUAGAAGUCACUUUUCAGAGAUUUGCUGUUCCUCACAGAGGAAUCCAAGUAACGCCCCAAUGUGUAGAUUUGCCUCAACAGAGGAUUGAGCAUCA
B6: chr9:21819513:21819514:-_ENSMUSG00000003410_ENSMUST00000003501|mus_hu|FALSE|FALSE (ssRNA)
RNA: GGGAGUUCUACAGUCCGACGAUCCUGAACUUUUAUUUUCUGGCAUGAAAAGUACAAAUAAUUAAACAAUUCCAUGUAAAAGUCUGUUACCGCGGCCAGGCCUGUGAUCCCGGUAAUAAAUAGUCUAAACGCAACGCGAAGUGUCAACAGAGGAUUGAGCAUCA
B7: chr1:235506033:235506034:+_ENSG00000152904_ENST00000391855|hu_mus|motif|central (ssRNA)
RNA: GGGAGUUCUACAGUCCGACGAUCAUAGUAUUAUUUAUUUUCUUCUGUGAACAUCUUACUUAAGUGCUUGACUAAAGCCACGGGUGAAGGGUUCCCACCACAGGCCUCAAUUUGUUUGUAGGCUUUAGCUUCAAGCUCUCUAAGCAACAGAGGAUUGAGCAUCA
B8: chr12:70905630:70905631:-_ENSMUSG00000034761_ENSMUST00000110570|mus_hu|FALSE|FALSE (ssRNA)
RNA: GGGAGUUCUACAGUCCGACGAUCAUUCUGUAUGAAACUGUAUUAUAAAAUACUUUUGUUAAGCAAAAUUGCAUGUGUGUGUUGAACCCCCAAACACUCAAAGUACUUUACUACUCUUAAAAGAUAAACAAAAUUCUUAUACAUCAACAGAGGAUUGAGCAUCA
B9: chrX:20248510:20248511:+_ENSMUSG00000001924_ENSMUST00000001989|perfect_dup|FALSE|FALSE (ssRNA)
RNA: GGGAGUUCUACAGUCCGACGAUCGACCUGACUGACGAUGCCUCCACGGAUGUAGUCAGAGAAGUUGGAAGUGUCACAGAUACUAAAGGUAUAAGGACCCAGCACUUUGAUCUCCAUGGGCUGACAUCCAUUGAGUUGGAUCAUCAACAGAGGAUUGAGCAUCA
B10: chr1:88248876:88248877:-_ENSMUSG00000026234_ENSMUST00000027438|perfect_dup|FALSE|FALSE (ssRNA)
RNA: GGGAGUUCUACAGUCCGACGAUCUUCCAUUUUAUUACAGGAAUUUAAAGCUUCUUUAGCAUCUUCAAAUGAAGCAAAUUCUAUAAAUGCAUACCCUUUAGGUUUGCCAUGUGGGUUCUGGGGCACUUUGAUAAAAGUUGCUUUCAACAGAGGAUUGAGCAUCA
B11: chrX:20248820:20248821:+_ENSMUSG00000001924_ENSMUST00000001989|mus_mus|mus_mus_mus_hu_True|48_78 (ssRNA)
RNA: GGGAGUUCUACAGUCCGACGAUCGGCGAAGUCCGUCACCACAAAGUCAGGUUCUGCCAGUGAUGCUACCAAGGAUUUAAAGCUAAUCUUUUUCGGUACUUUGACCUGACUGACGAUGCCUCCACGGAUGUAGUCGGAGAAGUUCAACAGAGGAUUGAGCAUCA
B12: chr1:66486420:66486421:+_ENSMUSG00000015222_ENSMUST00000077355|mus_mus|FALSE|FALSE (ssRNA)
RNA: GGGAGUUCUACAGUCCGACGAUCUUAAAAUUUAUUUUUAAAUAGGGAGAGAACCCUGCUAACAUCUACUUUCACAUACCUAAAAUUGCAACACCAAAGGGUGCAGGAGACACAGAUACUGUGAAUAAAGAAGUAUCAUAUUCACAACAGAGGAUUGAGCAUCA
B13: chr3:110853029:110853030:+_ENSG00000177707_ENST00000485303|hu_mus|FALSE|FALSE (ssRNA)
RNA: GGGAGUUCUACAGUCCGACGAUCUGGCUGUUAGACAUACCACUCCCUCCUGGAAAUUACGGAGCCAUCUACAUGAGAAACCAAACCAUCUUCACUUUCAUUGUAGCGUUCAUCACUGACAAACUUCAUUCCCAUUUUUAGAUCCAACAGAGGAUUGAGCAUCA
B14: 135224773_135229106_165_5pUTR_ENSG00000107290_ENST00000224140|human|control|control (ssRNA)
RNA: GGGAGUUCUACAGUCCGACGAUCGGUGGAAGCACCACCUGGCGUACACCAACAACAUGUGCUCAUUCUGUACCUGGACAAAUGGCCUACAGAAAAGUGAUCGUCUCAGCUGGGCUUAGUUGUGAACAAACACGGAUUUGCAUUCAACAGAGGAUUGAGCAUCA
B15: chr3:88516089:88516090:+_ENSMUSG00000028060_ENSMUST00000029696|mus_hu|motif|central (ssRNA)
RNA: GGGAGUUCUACAGUCCGACGAUCAUUGACCAAACAGUAGUAAAAUACAAAUAAAACUUUCUUUAUGUCAGAACUGGGGCGGUUCACCUGGAAAAGGCUGACCAGGUCAAAUGUGUAUGGGAACGACCCUGUUAGGAUGCUUUGCAACAGAGGAUUGAGCAUCA
B16: chr3:100103413:100103414:-_ENSG00000154174_ENST00000284320|hu_mus|motif|central (ssRNA)
RNA: GGGAGUUCUACAGUCCGACGAUCAAGAAGUUUAAGAACUUUAUCAGCUAACAGCAUGCUCUGCUCAUUUUGAAACCCUUCGGAUAUACACACAGCAGUGACGUCUUCUAAACACUCCUUCUUAUUGUCUAGCUUCUCAUGGGCCAACAGAGGAUUGAGCAUCA
B17: chr3:139078181:139078182:-_ENSG00000184432_ENST00000507777|hu_hu|motif|central (ssRNA)
RNA: GGGAGUUCUACAGUCCGACGAUCCUGACUGGGUAAGUAAGUUCGGGCCAAGAAGGCAGCUUCUGGCAGCCGUCCAGUUCGGAUUAAGAGCUCUAGGCAGGCAUCAACCUUGCCCUGUAAAAAGUAGCUCAUGAAUGCCACAUUCAACAGAGGAUUGAGCAUCA
B18: chr17:66333223:66333224:-_ENSMUSG00000034647_ENSMUST00000038116|mus_hu|motif|central (ssRNA)
RNA: GGGAGUUCUACAGUCCGACGAUCAACAUCUCCUAGGACAAAAGUAUUUUCUGUAUCUUUUGUAGAUUCAUUAUCAGUAUCGGAAGCAGAACUAAUAAUCUGAACUGCAUUUUUUUGUUGUAAAAUACCUGGCUCUUGAUUAGCCAACAGAGGAUUGAGCAUCA
B19: chr19:58207738:58207739:+_ENSMUSG00000054843_ENSMUST00000077282|mus_hu|FALSE|FALSE (ssRNA)
RNA: GGGAGUUCUACAGUCCGACGAUCCCCAGAAAGGUAUAGCAUGACUUUAACUAAACAUCACAUUGUGUCUCAUAAUUCUCUACAAUUUGAAUUUUCAAGUUUUAAGAACCCAGUGGGAUUUGAGGUGAAUAAAACUUGAUAAUUCAACAGAGGAUUGAGCAUCA
B20: 49442959_49443542_3888_CDS_ENSG00000167548_ENST00000301067|human|control|control (ssRNA)
RNA: GGGAGUUCUACAGUCCGACGAUCUCCACGAGGCCGGCGUCUUCCUGGGAAACUGCUGCUGCGACCCUGUUUGAUGCGGGAACGGGCUGGGGAGCUGCGCCGCCGCCCCUUCUCCCCCUCAGCUUUGCCUCCGCUGAUAGCUGUCAACAGAGGAUUGAGCAUCA
B21: 71360568_71360688_1042_CDS_ENSG00000124383_ENST00000244230|human|control|control (ssRNA)
RNA: GGGAGUUCUACAGUCCGACGAUCAAACAGUCCCCCUUCAUCUUCAUCAGAAUCAAUAUCUUCAAAAAAAUCAAUAUCUUCCUCCUCCUCAUCAUUAUCAUCUUUUCGUUCCUCUUCUUUUUCUAUGUUUUCUAAAUAGGCCUCCAACAGAGGAUUGAGCAUCA
B22: chr18:42401725:42401726:-_ENSMUSG00000024493_ENSMUST00000097590|mus_mus|FALSE|FALSE (ssRNA)
RNA: GGGAGUUCUACAGUCCGACGAUCAGGCCGAACCCAACAAUUUGUCUGCCCAAACAUAGUCUCAGGUCUGAGUGUAGCAGCUACUAGGAAGAUAUUUUUCCCUUUCAGGCCGCUUAAUUUUGAUGGAUAUGGUUCAAGCACCUUCAACAGAGGAUUGAGCAUCA

target: T1, UNK ZnF1-3 (human, UniProt Q9C0B0 31-174); test: nsRBNS (natural sequence RNA bind-n-seq); RBNS binding buffer (assumed for nsRBNS): 25 mM Tris pH 7.5, 150 mM KCl, 3 mM MgCl2, 0.01% Triton X-100, 500 ug/ml BSA, 20 U/ml SUPERase-In, 4 C; UNK is unkempt and MSI1 is Musashi-1; names of the RNAs are library labels; protein concentration not given here; high values mean tight binding
T1 sequence: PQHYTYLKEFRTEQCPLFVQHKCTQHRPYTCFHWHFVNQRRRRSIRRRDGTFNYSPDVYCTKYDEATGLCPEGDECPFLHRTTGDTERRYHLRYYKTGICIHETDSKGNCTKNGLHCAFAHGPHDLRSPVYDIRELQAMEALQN

Binder | binding signal [enrichment R]
B1 | 2.55
B2 | 0.463
B3 | 1.3
B4 | 0.522
B5 | 0.873
B6 | 0.856
B7 | 0.959
B8 | 0.696
B9 | 0.463
B10 | 0.792
B11 | 0.818
B12 | 1.77
B13 | 0.852
B14 | 1.17
B15 | 1.29
B16 | 0.877
B17 | 1.11
B18 | 1.14
B19 | 0.945
B20 | 0.882
B21 | 1.8
B22 | 0.93
